PubChem BioAssay AID624418 (National Center for Advancing Translational Sciences (NCATS), 2012)
Several values for one entry are separate records, joined by “and”; a condition that tells them apart may be missing. Equal values may be shown once. Screen size: about 410,000 compounds; about 530 (0.13%) were called active. Inconclusive means that the source gave no clear call. Such entries were picked first, then a sample of the others. Calls follow the shape of the dose curve; as a rule, active = well fitted inhibition curve with a large enough effect; inconclusive = small, poorly fitted or top-dose-only effect, or another doubt; inactive = no such curve, though single readings can be large or run the other way. Potencies of inconclusive entries are doubtful fits and often do not repeat.

Experiment: qHTS of GLP-1 Receptor Inverse Agonists: Cytotox Screen
Conditions: HEK293 cAMP-luciferase reporter cells, luminescence, 24 h; activity change, negative = inhibition: at 38.3 µM (top of the series)
In short: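 Quantitative HTS format, 1536 wells, 200 cells/uL seeded. Compounds: 23 nL, 24 h, 37 °C. Detection: luciferase reagent, luminescence at 12 min RT; decreased signal taken as cytotoxic.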
% is scaled to controls: 0 for no effect and ±100 for the full control effect; potency is read from the fitted curve at half-maximal effect.

Which Potency does the source give for `Cc1nc(N2CCOCC2)c2c(C)c(C(=O)Nc3ccc(C(F)(F)F)cc3)sc2n1` here?
Its Potency is inconclusive: 28.2 µM [inhibitor, single point].

Which Potency does the source give for `CCc1cccc2c(C(=O)C(NC(C)CC)c3ccccc3)c[nH]c12` (configuration not stated) here?
The Potency was inconclusive: 11.2 µM [inhibitor, partial curve, poor fit].

Which Potency does the source give for `CC1CCCN(CCCNC(=O)c2ccc3c(c2)N(Cc2cccc(Cl)c2)C(=O)c2ccccc2S3=O)C1` (configuration not stated) here?
Its Potency is inconclusive: 25.1 µM [inhibitor, partial curve, poor fit].

Which Potency does the source give for `O=C(NC(=S)Nc1ccccn1)c1cccc([N+](=O)[O-])c1` here?
Its Potency is inconclusive: 14.1 µM [inhibitor, single point].

For `O=C(CCSc1nnc2scc(-c3ccccc3)n12)NCc1ccc2c(c1)OCO2`, which Potency is on record?
The Potency was inconclusive: 22.4 µM [inhibitor, single point].

Which “activity change, negative = inhibition” value does the source give for `Cc1ccc(C)c(N2CCN(C(=O)c3cc(S(=O)(=O)N4CCCCCC4)cn3C)CC2)c1` here?
Its value is inactive: 3.31%.

Which Potency does the source give for `COc1ccc(NC(=S)Nc2nc(CC(=O)Nc3ccccc3OC)cs2)cc1` here?
Its Potency is inconclusive: 4.47 µM [inhibitor, partial curve, poor fit].

With `O=[N+]([O-])c1ccc(Sc2ccncn2)c([N+](=O)[O-])c1` as the compound, how does the Potency read?
Its Potency is inconclusive: 10 µM [inhibitor, partial curve].

With `Cc1cccc2sc(N(CCCN(C)C)C(=O)COc3ccccc3)nc12` as the compound, how does the Potency read?
Its Potency is inconclusive: 12.6 µM [inhibitor, single point].

Which Potency does the source give for `Fc1ccc(CCNC(=S)Nc2ccc(F)c(Cl)c2)cc1` here?
Its Potency is inconclusive: 28.2 µM [inhibitor, single point].

For `CCOC(=O)C(=CNc1cc(C)ccc1C)C(=O)OCC`, which Potency is on record?
The Potency was inconclusive: 3.16 µM [inhibitor, partial curve, poor fit].

With `CCN(CC)S(=O)(=O)c1ccc2oc(SCC(=O)Nc3cc(C)on3)nc2c1` as the compound, how does the Potency read?
The Potency was inconclusive: 1.41 µM [inhibitor, full curve].

For `Cc1cc(C)c2c(n1)sc1c(=O)n(-c3cc(Cl)ccc3C)nnc12`, which “activity change, negative = inhibition” value is on record?
The value was inactive: 2.75%.

For `CNc1ccc(C=C2C=Cc3ccccc32)cc1`, which Potency is on record?
Its Potency is inconclusive: 28.2 µM [inhibitor, single point].

Which “activity change, negative = inhibition” value does the source give for `CCC(=O)N1c2ccc(S(=O)(=O)CCC(=O)Nc3ccc(Br)c(C)c3)cc2CC1C` (configuration not stated) here?
The value was inactive: 6.51%.

With `CC1CCc2cc(F)ccc2N1C(=O)CSc1nnc2c(n1)[nH]c1ccccc12` (configuration not stated) as the compound, how does the “activity change, negative = inhibition” value read?
The value was inactive: -25.8%.

With `CCOCCCN(Cc1ccco1)C(=O)c1cc2c(=O)[nH]c3ccc(C)cc3c2s1` as the compound, how does the Potency read?
The Potency was inconclusive: 20 µM [inhibitor, single point].

Which “activity change, negative = inhibition” value does the source give for `COc1ccc(-c2cn3c(n2)sc2cc(C(=O)NCCc4ccc(OC)cc4OC)ccc23)cc1` here?
Its value is inactive: 1.22%.

Which Potency does the source give for `O=C(NCc1cccnc1)C1CC(c2ccccc2O)=NO1` (configuration not stated) here?
The Potency was inconclusive: 11.2 µM [inhibitor, single point].

With `Cc1oc(=O)c(NC(=O)c2ccc(Cl)cc2)cc1C(=O)c1ccccc1` as the compound, how does the Potency read?
Its Potency is inconclusive: 11.2 µM [inhibitor, partial curve].

Which Potency does the source give for `CN1CCCN(Cc2ccccc2C(F)(F)F)CC1` here?
The Potency was inconclusive: 28.2 µM [inhibitor, single point].

Which Potency does the source give for `Nc1nc(SCC(=O)Nc2ccc([N+](=O)[O-])cc2)[nH]c(=O)c1NC(=O)c1ccc(Br)cc1` here?
The Potency was inconclusive: 3.98 µM [inhibitor, full curve, poor fit].

With `COc1ccc(OC)c(S(=O)(=O)NCCc2csc3nc(-c4ccccc4)nn23)c1` as the compound, how does the “activity change, negative = inhibition” value read?
The value was inactive: -4.4%.

For `Cc1c(C(=O)N(Cc2ccc(N(C)C)cc2)CC2CCCO2)oc2ccc(Br)cc12` (configuration not stated), which “activity change, negative = inhibition” value is on record?
Its value is inactive: -6.45%.

Which Potency does the source give for `CCCCCc1ccc(C(=O)CCCC)c(=S)[nH]1` here?
Its Potency is inconclusive: 28.2 µM [inhibitor, single point].

For `CN(C)CCCN(C(=O)c1ccc(S(=O)(=O)N(C)Cc2ccccc2)cc1)c1nc2cc3c(cc2s1)OCO3`, which Potency is on record?
Its Potency is inconclusive: 28.2 µM [inhibitor, single point].

With `CCn1c(SCc2ccc([N+](=O)[O-])cc2)nnc1C(C)NC(=O)c1ccc(C)cc1` (configuration not stated) as the compound, how does the Potency read?
The Potency was inconclusive: 8.91 µM [inhibitor, partial curve].

Which Potency does the source give for `C#CCOCCOCCOCCNc1nc(N2CCN(C(=O)[C@H]([C@@H](C)CC)n3cc([C@@H](N)Cc4ccc(O)cc4)nn3)CC2)nc(N2CCN(C(=O)[C@H]([C@@H](C)CC)n3cc([C@@H](N)CC(C)C)nn3)CC2)n1` here?
The Potency was inconclusive: 22.4 µM [inhibitor, single point].

Which Potency does the source give for `C(=N\Nc1nc2ccccc2[nH]1)/c1ccc2c(c1)OCO2` here?
The Potency was inconclusive: 22.4 µM [inhibitor, partial curve, poor fit].

For `COc1cc(NC(=S)NC(=O)c2ccco2)ccc1NC(=O)C(C)C`, which “activity change, negative = inhibition” value is on record?
Its value is inactive: 1.45%.

With `CCn1c(CSc2nc3ccccc3[nH]2)nc2cc(C(=O)O)ccc21` as the compound, how does the “activity change, negative = inhibition” value read?
The value was inactive: 54.9%.

For `O=C(COc1ccccc1C(=O)O)NC1CCCc2ccccc21` (configuration not stated), which activity change, negative = inhibition is on record?
Its activity change, negative = inhibition is inactive: 6.81% [at 7.66 µM].

Which “activity change, negative = inhibition” value does the source give for `N=c1c(C(=O)NC2CCCCC2)cc2c(=O)n3ccccc3nc2n1CCc1ccccc1` here?
Its value is inactive: 11%.

For `CC(=O)Nc1nnc(C)s1`, which Potency is on record?
Its Potency is inconclusive: 2.51 µM [inhibitor, partial curve, poor fit].

Which “activity change, negative = inhibition” value does the source give for `CCOc1ccccc1N(CC(=O)Nc1ccc(OC)c(Cl)c1)S(=O)(=O)c1ccccc1` here?
Its value is inactive: 0.157%.

For `Cc1ccc(N(CC(C)C)S(=O)(=O)c2nnc(NC(=O)c3cccs3)s2)cc1`, which “activity change, negative = inhibition” value is on record?
Its value is inactive: 0.755%.

Which Potency does the source give for `O=C(NC(=S)Nc1ccc(-c2ccccc2)cc1)c1ccccc1` here?
The Potency was inconclusive: 5.62 µM [inhibitor, partial curve].

For `COc1ccc(NC(=O)CN(C)C(=O)c2cc(-c3ccc(Cl)cc3)nc3ccccc23)cc1`, which Potency is on record?
Its Potency is inconclusive: 28.2 µM [inhibitor, single point].

With `OC(CNCc1ccc(-c2ccccc2)cc1)c1ccccc1` (configuration not stated) as the compound, how does the Potency read?
Its Potency is inconclusive: 10 µM [inhibitor, partial curve, poor fit].

Which Potency does the source give for `Oc1ccc(CN2CCC(Cc3ccccc3)CC2)c2cccnc12` here?
The Potency was inconclusive: 0.501 µM [inhibitor, full curve, poor fit].

With `COc1cc(N/N=C/c2ccc(N(C)C)cc2)ncn1` as the compound, how does the “activity change, negative = inhibition” value read?
Its value is inactive: 6.68%.

For `CCCCOc1ccc(C(=O)N2CCCC2C(=O)O)cc1` (configuration not stated), which “activity change, negative = inhibition” value is on record?
Its value is inactive: -3.45%.

Which Potency does the source give for `CCCCC1=CC2=C(c3ccco3)C(=O)C(C)(OC(=O)c3ccc(OC)cc3)C(=O)C2=CN1CCN1CCOCC1` (configuration not stated) here?
Its Potency is inconclusive: 3.98 µM [inhibitor, full curve, poor fit].

With `COC(=O)C(Cc1c[nH]c2ccccc12)NC(=O)CNC(C)=O` (configuration not stated) as the compound, how does the “activity change, negative = inhibition” value read?
The value was inactive: 4.62%.

Which Potency does the source give for `Cc1ccc(S(=O)(=O)N(Cc2ccccc2)c2ccccc2C(=O)N2CCCCC2)cc1` here?
Its Potency is inconclusive: 10 µM [inhibitor, partial curve, poor fit].

For `CCCCOc1cccc(C(=O)NC(=S)Nc2cccnc2)c1`, which Potency is on record?
The Potency was inconclusive: 31.6 µM [inhibitor, single point].

With `OC(COC(c1ccc(Cl)cc1)c1ccc(Cl)cc1)CN1CCc2ccccc2C1` (configuration not stated) as the compound, how does the Potency read?
The Potency was inconclusive: 10 µM [inhibitor, partial curve].

Which “activity change, negative = inhibition” value does the source give for `COc1ccccc1NC(=O)c1cc(C2CC2)nc2c1c(C)nn2-c1ccc(C)cc1` here?
The value was inactive: -5.07%.

Which Potency does the source give for `COc1cc(OC)c(OC)cc1/C=N/NC(=S)NCC1CCCO1` (configuration not stated) here?
The Potency was inconclusive: 31.6 µM [inhibitor, single point].

With `OC(CN1CCN(c2ccccc2F)CC1)c1ccc(F)cc1` (configuration not stated) as the compound, how does the “activity change, negative = inhibition” value read?
Its value is inactive: -5.01%.

With `CCNC(=O)NC(=O)COC(=O)CCCc1nc2ccccc2s1` as the compound, how does the activity change, negative = inhibition read?
Its activity change, negative = inhibition is inactive: 8.84% [at 0.307 µM].

For `CC(=O)Nc1ccc(-c2ccnc3c2CC(C)(C(=O)Nc2ccc(C(C)C)cc2)O3)cc1` (configuration not stated), which “activity change, negative = inhibition” value is on record?
Its value is inactive: -19.2%.

Which “activity change, negative = inhibition” value does the source give for `COc1ccc(Cl)cc1NC(=O)CN(C)CC(=O)Nc1c(C)n(C)n(-c2ccccc2)c1=O` here?
The value was inactive: -1.8%.

For `Cc1ccccc1NC(=O)c1c([N+](=O)[O-])c(C(C)(C)C)nn1C`, which “activity change, negative = inhibition” value is on record?
Its value is inactive: 6.11%.

With `O[C@H]1CN(CC2CCCCC2)[C@@H](c2ccc(Cl)cc2)C[C@@H]1n1cc(C2CC2)nn1` as the compound, how does the Potency read?
The Potency was inconclusive: 28.2 µM [inhibitor, single point].

For `Cc1ccccc1C(=O)Nc1ccc(N2CCCC2)cc1`, which Potency is on record?
The Potency was inconclusive: 10 µM [inhibitor, single point].

For `COc1ccccc1-c1nnc(SCC(=O)c2ccc(F)cc2)n1-c1ccccc1`, which “activity change, negative = inhibition” value is on record?
Its value is inactive: -25.8%.

For `Cc1ccc(CN2C(=O)c3ccccc3Sc3ccc(C(=O)NCCCN4CCOCC4)cc32)cc1`, which Potency is on record?
Its Potency is inconclusive: 25.1 µM [inhibitor, single point] and inconclusive: 28.2 µM [inhibitor, single point].

With `CC(C)(C)C(=O)NCCCc1nc2ccccc2n1CCCOc1ccc(Cl)cc1` as the compound, how does the Potency read?
Its Potency is inconclusive: 12.6 µM [inhibitor, partial curve, poor fit].

Which “activity change, negative = inhibition” value does the source give for `Cc1cc(Cl)ccc1OCc1cc(=O)n2c3c(sc2n1)CCCC3` here?
Its value is inactive: -1.52%.

For `Cc1cccc(NC(=S)NC(=O)c2cc(-c3ccccc3)nc3ccccc23)c1`, which “activity change, negative = inhibition” value is on record?
Its value is inactive: 3.14%.

With `Cc1ccc(OCCNC(=O)CNC(=O)c2ccc3c(c2)OCO3)cc1` as the compound, how does the Potency read?
Its Potency is inconclusive: 28.2 µM [inhibitor, single point].

With `Cc1cc(C)c2sc(N(CCN(C)C)C(=O)c3cc(Cl)sc3Cl)nc2c1` as the compound, how does the “activity change, negative = inhibition” value read?
The value was inactive: -0.995%.

With `COc1cccc(C(c2nnnn2Cc2ccccc2)N2CCN(C3CCCC3)CC2)c1OC` (configuration not stated) as the compound, how does the Potency read?
Its Potency is inconclusive: 12.6 µM [inhibitor, single point].

For `C(=N\n1cnnc1)/c1cn(-c2cccs2)nc1-c1ccccc1`, which Potency is on record?
Its Potency is inconclusive: 8.91 µM [inhibitor, partial curve, poor fit].

For `COc1ccc(C(=O)Nc2ccc(N3CCOCC3)c(C(F)(F)F)c2)cc1OC`, which Potency is on record?
Its Potency is inconclusive: 12.6 µM [inhibitor, single point].

For `COc1ccc(/C(C)=N/NC(=S)NCCc2ccccc2)cc1`, which Potency is on record?
Its Potency is inconclusive: 22.4 µM [inhibitor, partial curve, poor fit].
